# Paper PMC4336329 (PLoS ONE, 2015)
# Hit rate of the full screen: of about 310,000 compounds, about 2,200 (0.71%) showed an effect of 50% or more. Effects have a minus sign here. This is one part of the list.
# Biological target: human ether-à-go-go-related gene (hERG) potassium channel (human, UniProt Q12809)
# Assay: primary screen, population patch clamp on CHO cells stably expressing hERG
# human ether-à-go-go-related gene (hERG) potassium channel, sequence (Q12809 whole entry, looked up): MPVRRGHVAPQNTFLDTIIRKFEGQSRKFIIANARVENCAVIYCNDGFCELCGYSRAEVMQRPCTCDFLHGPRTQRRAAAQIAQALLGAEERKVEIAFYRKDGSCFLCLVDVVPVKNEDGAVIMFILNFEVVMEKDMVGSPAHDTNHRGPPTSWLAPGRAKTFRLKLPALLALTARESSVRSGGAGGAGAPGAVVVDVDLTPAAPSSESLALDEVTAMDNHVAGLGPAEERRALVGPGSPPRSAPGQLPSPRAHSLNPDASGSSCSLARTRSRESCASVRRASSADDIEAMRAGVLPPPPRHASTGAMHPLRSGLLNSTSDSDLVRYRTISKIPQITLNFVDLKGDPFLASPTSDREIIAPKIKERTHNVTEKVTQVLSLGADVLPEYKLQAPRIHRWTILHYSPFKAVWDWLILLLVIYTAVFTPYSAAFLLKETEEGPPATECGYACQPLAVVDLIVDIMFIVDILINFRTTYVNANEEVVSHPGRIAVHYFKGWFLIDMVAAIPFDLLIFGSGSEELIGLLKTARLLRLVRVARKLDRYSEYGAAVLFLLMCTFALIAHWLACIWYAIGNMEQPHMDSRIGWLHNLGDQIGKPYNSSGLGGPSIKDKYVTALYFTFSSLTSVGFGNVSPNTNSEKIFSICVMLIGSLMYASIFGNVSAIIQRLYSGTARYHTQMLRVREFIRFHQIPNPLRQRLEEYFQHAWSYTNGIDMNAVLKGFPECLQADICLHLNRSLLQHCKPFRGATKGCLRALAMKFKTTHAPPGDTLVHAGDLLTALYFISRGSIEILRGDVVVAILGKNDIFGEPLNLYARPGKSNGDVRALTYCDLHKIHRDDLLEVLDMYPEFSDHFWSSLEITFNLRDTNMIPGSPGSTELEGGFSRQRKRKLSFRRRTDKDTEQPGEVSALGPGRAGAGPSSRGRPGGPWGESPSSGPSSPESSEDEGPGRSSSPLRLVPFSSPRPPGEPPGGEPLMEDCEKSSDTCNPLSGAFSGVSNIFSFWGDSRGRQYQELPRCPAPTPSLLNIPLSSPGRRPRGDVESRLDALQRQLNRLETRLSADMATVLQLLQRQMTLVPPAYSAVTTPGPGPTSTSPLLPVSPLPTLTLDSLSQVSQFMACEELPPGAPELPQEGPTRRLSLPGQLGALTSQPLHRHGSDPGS
row,Structure (SMILES),"hERG current change (%, negative = inhibition) at 1uM [%]"
1,Cc1ccc(C(=O)c2ccccc2C(=O)OCC(=O)Nc2ccc(SC(F)F)cc2)cc1,3.12
2,CC1CCCN(C(=O)COC(=O)/C=C/c2ccc(C(F)(F)F)cc2)C1 (centres unmarked),15.5
3,CC(=O)Nc1ccc(C2=NN(c3ccccc3)C(c3ccccc3)C2)cc1 (centres unmarked),5.35
4,O=C(COc1ccc(Cl)cc1)N/N=C/c1cccc2cccnc12,7.98
5,O=C(Nc1cccc(Cl)c1)C1C2CCC3C(CCC21)C3(Cl)Cl (centres unmarked),11.4
6,CC1CCN(c2nc(NCc3ccco3)nc(N)c2[N+](=O)[O-])CC1,1.2
7,Cc1ccccc1C(=O)NC(=S)Nc1ccccc1C(=O)O,7.8
8,COc1ccc2cc(CCNC(=O)c3ccco3)c(=O)[nH]c2c1,10.9
9,CCOC(=O)N1CCN(C(=O)c2c(O)c3cccc4c3n(c2=O)CC4)CC1,8.56
10,COc1ccc(Cl)cc1NC(=O)CCCNC(=O)c1ccc(Cl)cc1,3.79
11,Cc1ccccc1-n1ncc2c1CC(C)(C)CC2NC(=O)c1cn[nH]c1C (centres unmarked),8.4
12,COC(=O)c1ccc(C(=O)OC)c(NS(C)(=O)=O)c1,1.69
13,CCCn1nnc(NC(=O)C(C)C)n1,1.8
14,COc1ccc(/C=C2/C(=O)N(c3ccccc3)N=C2C)cc1OC,9.6
15,CCC1=C(OC(=O)N(CC)CC)N2C(=O)OC(=NCC3CC3)[C@]2(C)[C@H]2C1=CC[C@H]1C(=O)N(CC(=O)OC)C(=O)[C@H]12,0.812
16,CC(C)(C)NC(=O)NC(=O)COC(=O)c1cccc(F)c1,-0.922
17,CC(C)[C@H](NC(=O)N1CCn2c1nc1ccccc12)C(=O)NCc1ccccc1Cl,11.2
18,Cc1cnc(C(=O)OCC(=O)Nc2cc(S(=O)(=O)N3CCCCC3)ccc2Cl)cn1,19.4
19,CN1CCc2c1nc1ccccc1c2NC(=O)CN1CCCC1,13
20,Cc1cc(C)c2c(N)c(-c3nnc(SCc4ccc(Cl)cc4)n3C)sc2n1,14.6
21,COc1ccc(OC)c(NC(=O)CCN2CCN(c3ccccc3F)CC2)c1,9.62
22,COc1ccc(CCNC(=O)CSc2nc(-c3ccco3)cc(C(F)(F)F)n2)cc1,-1.21

row,Structure (SMILES),"hERG current change (%, negative = inhibition) at 1uM [%]"
1,Cl.c1ccc(-n2cnc3cc(NCc4ccccn4)ccc32)cc1,2.17
2,COc1ccc(Nc2nc(N/N=C/c3ccc(N(C)C)cc3)nc(C)c2[N+](=O)[O-])cc1,21.5
3,CC(=O)Nc1ccc(S(=O)(=O)Oc2ccccc2N2C(=O)C3C4CCC(C4)C3C2=O)cc1 (centres unmarked),8.91
4,CC(=O)c1c(C)n(-c2ccc(Br)cc2)c2ccc(O)cc12,14.8
5,Cc1ccc(C(C(=O)NC2CCCC2)N(Cc2ccccc2)C(=O)c2csnn2)o1 (centres unmarked),12.4
6,O=C(CN1C(=O)c2ccccc2S1(=O)=O)c1ccccc1Cl,10.2
7,CCOC(=O)CCSc1nc(-c2ccccc2)cc(C(F)(F)F)n1,9.18
8,CSc1c[n+]2c(n1C)CCC2.[I-],5.05
9,Brc1ccc(-c2ccccc2)cc1,12.4
10,CC(C)Oc1ccc(/C(O)=C2/C(=O)C(=O)N(CCN3CCOCC3)C2c2ccccc2)cc1 (centres unmarked),12.8
11,COC(=O)c1ccc(Cn2nnc3c(=O)[nH]c(C4CCCN(S(=O)(=O)c5ccccc5)C4)nc32)cc1 (centres unmarked),10.9
12,Cc1ccccc1CC(=O)Nc1cccnc1,14.5
13,COc1ccccc1CCNC(=O)CCSc1nc(-c2ccco2)cc(C(F)(F)F)n1,13.4
14,CN1CCN(c2ccc(Cl)cc2NC(=O)CC2OC(=O)c3ccccc32)CC1 (centres unmarked),-61.2
15,CC(=O)Nc1ccc(N(C)S(C)(=O)=O)cc1,-0.0576
16,COc1ccc(-c2nnc3ccc(SCC(=O)Nc4cc(C)on4)nn23)cc1OC,4.84
17,O=C1CN2C(=Nc3ccc(Br)cc3C2c2ccccc2)CCN1 (centres unmarked),6.42
18,CCOC(=O)N1CCN(c2c(NCCN3CCN(Cc4ccccc4)CC3)c(=O)c2=O)CC1,0.789
19,O=C(c1ccc(CS(=O)(=O)c2ccc(Br)cc2)o1)N1CCN(C2CCCCC2)CC1,-7.37
20,COc1ccc(Cl)cc1NC(=O)CCN1C(=O)C2C3C=CC(C4CC34)C2C1=O (centres unmarked),4.88
21,CC(C)CN(C(=O)CSc1n[nH]c(-c2cccs2)n1)C1CCS(=O)(=O)C1 (centres unmarked),2.69
22,Cc1cc(Nc2ccc3c(c2)OCCO3)c2ccccc2n1.Cl,-3.48

row,Structure (SMILES),"hERG current change (%, negative = inhibition) at 1uM [%]"
1,Cc1ccc(C)c(-n2c(SCC(=O)N3CCCC3)nnc2-c2ccccn2)c1,15.3
2,C/C(=N\NC(=O)COc1ccccc1)c1ccc(O)cc1,-3.98
3,CC(Cl)C(=O)N1c2ccccc2CCc2ccccc21 (centres unmarked),8.04
4,Cc1oc(-c2cccc(F)c2)nc1CN(Cc1ccccc1)C[C@@H]1CCC(=O)N1,6.53
5,CN(c1ccc(O)cc1)c1nc(-c2ccccc2)cs1,17.6
6,CN(Cc1ccncc1)C1CC(=O)N(c2ccc(Cl)cc2)C1=O (centres unmarked),-3.62
7,Cc1cc(SCC(=O)N/N=C/c2ccc(O)c(O)c2O)c(C)cc1Br,7.17
8,O=C(CN1C(=O)/C(=C/c2ccccc2)SC1=S)Nc1ncc(Cc2ccccc2)s1,11.5
9,CC(C)(Cc1cc(CC(C)(C)C(=O)O)cc(C(C)(C)C)c1)C(=O)O,15.1
10,COc1ccccc1NC(=O)c1ccccc1N(Cc1ccccc1)S(C)(=O)=O,16.5
11,Cc1cccc(N2C(=O)/C(=C/c3ccccn3)SC2=S)c1,9.11
12,CC(=O)Nc1ccc(S(=O)(=O)NCC2CCC(C(=O)N3CCN(c4ccccn4)CC3)CC2)cc1 (centres unmarked),23
13,CC(C)(C)SCCNC(=O)CN(c1ccc(F)cc1)S(=O)(=O)c1ccccc1,14.7
14,Nc1nnnn1/N=C/c1ccccc1O,15.1
15,CC(C)c1onc(C(=O)N2CCN(c3ccc(F)cc3)CC2)c1[N+](=O)[O-],11.7
16,Cc1ccc(S(=O)(=O)N(CC(=O)NCCC2=CCCCC2)Cc2ccccc2)cc1,2.21
17,O=C(COC(=O)CNC(=O)c1ccccc1F)Nc1nnc(-c2ccccc2)o1,-10.1
18,COCCN(C(=O)CNC(=O)c1ccco1)C(C(=O)NC1CCCC1)c1ccc(F)cc1 (centres unmarked),9.03
19,COc1cccc(-c2nc(-c3ccc(NC(=O)c4ccncc4)cc3)no2)c1,-1.38
20,CN1/C(=C\C(=O)CSc2nnc(NCc3ccccc3)s2)C(C)(C)c2ccccc21,-4.97
21,O=C1c2ccccc2C(=O)C12OC2c1ccc(Cl)cc1 (centres unmarked),13.4
22,COc1ccc([C@@H](O)[C@@H](N)c2ccccc2)cc1.Cl,10.9

row,Structure (SMILES),"hERG current change (%, negative = inhibition) at 1uM [%]"
1,CC1CCN(C(=O)Cn2c(=O)oc3cc(S(=O)(=O)N4CCCCC4)ccc32)CC1,14.5
2,CCCC(=O)Nc1nc2ccc(S(N)(=O)=O)cc2s1,3.63
3,COc1cc(-c2cc(=O)c3c(O)c(OC)c(OC)cc3o2)cc(OC)c1O,9.36
4,CCOC(=O)c1sc2nc(CC(=O)OC)nc(N3CCN(c4ccc(OC)cc4)CC3)c2c1C,12.6
5,CCOc1ncccc1C(=O)Nc1cccc(S(=O)(=O)N2CCCCC2)c1,5.44
6,Cc1ccc(S(=O)(=O)N2CCCC2CNC(=O)C(=O)NCc2ccccn2)cc1 (centres unmarked),4.34
7,COc1ccc(NC(=O)Cn2c(C)csc2=O)c(OC)c1,6.05
8,Cc1ccc2c(c1)C1OCCC1C1N2C(=O)C2C(C(=O)O)C3C=CC21O3 (centres unmarked),14
9,CCOC(=O)c1c(C)n(-c2ccc(F)cc2)c2ccc(O)cc12,11.1
10,COc1cc(Nc2c3c(nc4ccccc24)CCC3)cc(OC)c1OC,-19.4
11,CCCCOc1ccc(C(C)NC(=O)CCS(=O)(=O)Cc2ccc(Cl)cc2)cc1 (centres unmarked),16.7
12,COc1ccccc1C1=NN(C(=O)c2ccccc2)C(c2ccc(Br)cc2)C1 (centres unmarked),18.5
13,CCN(CC)CCNC(=O)c1ccc2c(=O)n(CCc3ccccc3)c(=O)[nH]c2c1,7.57
14,CC(=O)OC(COc1cccc(C)c1)Cn1cnc2ccccc21.Cl (centres unmarked),-5.27
15,COc1ccc(NC(=O)CSCc2ccc([N+](=O)[O-])cc2)cc1OC,4.12
16,CC(=O)Nc1ccc(N2CCCC(C)C2)c([N+](=O)[O-])c1 (centres unmarked),5.5
17,Cc1ccc(Nc2nc(/N=C/NO)n[nH]2)cc1C,11.7
18,CC1CCN(C(=O)C(C)OC(=O)CSc2ccc([N+](=O)[O-])cc2)CC1 (centres unmarked),0.731
19,Cl.O=C(c1ccc(F)cc1F)N(Cc1ccccn1)Cc1ccco1,8.89
20,Cn1c2ccc(CC(=O)O)cc2c2cc(CC(=O)O)ccc21,11.4
